Our source for the binding values is publication PMC6411902.

Amino acid sequences for entries named in this document (tags omitted). A change or cut given only in a name is not applied to a line headed by its entry.
UniProt Q9BV68: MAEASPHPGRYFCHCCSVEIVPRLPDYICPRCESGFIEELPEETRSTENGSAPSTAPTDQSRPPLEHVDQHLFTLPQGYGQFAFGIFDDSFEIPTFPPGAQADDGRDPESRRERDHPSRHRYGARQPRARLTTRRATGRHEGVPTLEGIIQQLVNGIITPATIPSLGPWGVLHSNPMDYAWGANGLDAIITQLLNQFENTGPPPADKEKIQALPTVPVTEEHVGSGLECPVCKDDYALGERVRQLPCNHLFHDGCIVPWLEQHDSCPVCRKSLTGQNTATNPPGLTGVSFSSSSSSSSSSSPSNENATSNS
UniProt Q8IYW5: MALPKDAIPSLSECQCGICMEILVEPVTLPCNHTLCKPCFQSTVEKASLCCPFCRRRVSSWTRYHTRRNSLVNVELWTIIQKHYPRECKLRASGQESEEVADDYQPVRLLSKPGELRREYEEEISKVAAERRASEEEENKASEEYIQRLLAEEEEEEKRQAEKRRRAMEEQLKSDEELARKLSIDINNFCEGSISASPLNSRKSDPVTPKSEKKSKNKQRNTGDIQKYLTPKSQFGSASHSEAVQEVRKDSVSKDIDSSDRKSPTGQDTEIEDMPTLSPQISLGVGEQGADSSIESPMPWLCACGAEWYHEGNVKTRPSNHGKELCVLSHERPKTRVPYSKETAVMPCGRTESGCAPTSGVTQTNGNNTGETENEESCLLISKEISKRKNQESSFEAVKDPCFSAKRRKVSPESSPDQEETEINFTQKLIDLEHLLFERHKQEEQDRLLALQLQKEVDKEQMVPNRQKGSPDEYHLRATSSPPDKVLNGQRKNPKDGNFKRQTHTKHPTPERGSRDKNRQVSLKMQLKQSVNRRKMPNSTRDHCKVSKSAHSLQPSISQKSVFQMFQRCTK
UniProt P61088: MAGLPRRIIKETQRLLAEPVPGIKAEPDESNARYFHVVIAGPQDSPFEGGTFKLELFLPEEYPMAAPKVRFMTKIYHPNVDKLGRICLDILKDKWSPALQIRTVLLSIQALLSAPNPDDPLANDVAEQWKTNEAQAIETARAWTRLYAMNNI

Assay [1] deals with GST-RNF126 (human) (UniProt Q9BV68). Kind of assay: pull-down; bacterially-produced GST-RNF126 as bait; FLAG-RNF168 in the total cell lysate of transiently transfected HEK293T cells; only the target purified.
Assay [2] concerns the target HA-RNF168 (human) (UniProt Q8IYW5). In words: co-IP; epitope-tagged proteins co-expressed in HEK293T cells; total lysates harvested 48 h after transfection, immunoprecipitation (anti-FLAG beads in Figure 2B; indicated antibodies in the other panels) and immunoblotting.
Assay [3] deals with T1, FLAG-RNF8 (UniProt O76064).
T1 sequence: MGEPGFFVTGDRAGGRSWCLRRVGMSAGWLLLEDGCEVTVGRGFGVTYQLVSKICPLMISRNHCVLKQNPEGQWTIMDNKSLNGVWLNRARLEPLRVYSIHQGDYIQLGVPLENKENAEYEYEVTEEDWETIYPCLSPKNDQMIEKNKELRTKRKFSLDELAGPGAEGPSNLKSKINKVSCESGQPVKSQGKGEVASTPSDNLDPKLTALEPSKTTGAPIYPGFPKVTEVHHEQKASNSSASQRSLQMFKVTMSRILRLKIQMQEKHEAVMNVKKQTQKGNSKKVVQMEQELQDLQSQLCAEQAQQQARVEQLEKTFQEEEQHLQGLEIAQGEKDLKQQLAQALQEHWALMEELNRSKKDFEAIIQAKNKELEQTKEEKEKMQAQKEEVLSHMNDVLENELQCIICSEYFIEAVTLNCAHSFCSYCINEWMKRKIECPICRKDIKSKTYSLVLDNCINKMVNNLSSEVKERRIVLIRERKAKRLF
The assay is described as above.

In assay [4] the target is FLAG-UBC13 (UniProt P61088). In words: co-IP; HEK293T cells co-expressing HA-RNF168, FLAG-UBC13 and GFP-RNF126 or GFP-RNF126(CC229/232AA); mock or bleomycin treatment for 1 h; lysates extracted with SDS-containing lysis buffer and boiled for 10 min; immunoprecipitation with anti-FLAG beads.
In assay [5] the target is RNF126 (ring finger protein 126), endogenous (human (endogenous in HEK293T)) (UniProt Q9BV68). In words: co-IP; endogenous proteins; total lysates of HEK293T cells immunoprecipitated with an anti-RNF126 antibody, immunoblotting.
Assay [6] concerns the target HA-RNF126 (human) (UniProt Q9BV68). In words: co-IP; epitope-tagged proteins co-expressed in HEK293T cells; total lysates harvested 48 h after transfection, immunoprecipitation (anti-FLAG beads in Figure 2B; indicated antibodies in the other panels) and immunoblotting.

Results are given in words; binding and its absence hold for the method and conditions named. In cells and extracts the contact can be indirect. Some entries that bind do so weakly or less than the wild type. For some assays here: Tags and fused reporters may be left off the sequences shown.

As to FLAG-RNF168 (from UniProt Q8IYW5 1-571), in assay [1], the binding result is listed as “binds”.

With “GFP-RNF126(1–100) (from UniProt Q9BV68 1-100) (domain or fragment)”, the binding entry in assay [2] and in assay [3] was “binds” in each case.

On to “GFP-RNF126(101–200) (from UniProt Q9BV68 101-200) (domain or fragment)”, for which the binding entry in assay [2] and in assay [3] was “no binding” each time.

Turning to “GFP-RNF126(201–311) (from UniProt Q9BV68 201-311) (domain or fragment)”, the binding result in assay [2] and in assay [3] was “no binding” each time.

On to HA-RNF168 (from UniProt Q8IYW5 1-571), for which the binding entry in assay [4] is “binds”.

On to “RNF168, endogenous (from UniProt Q8IYW5 1-571)”, for which the binding result in assay [5] is given as “binds”.

B1: GFP-RNF8 N-terminus (aa 1–141) (domain or fragment, UniProt O76064 1-141)
chain: MGEPGFFVTGDRAGGRSWCLRRVGMSAGWLLLEDGCEVTVGRGFGVTYQLVSKICPLMISRNHCVLKQNPEGQWTIMDNKSLNGVWLNRARLEPLRVYSIHQGDYIQLGVPLENKENAEYEYEVTEEDWETIYPCLSPKND
Turning to B1, the binding entry in assay [6] is given as “binds”.

B2: RNF8 (ring finger protein 8), endogenous (protein, UniProt O76064 1-485)
chain: MGEPGFFVTGDRAGGRSWCLRRVGMSAGWLLLEDGCEVTVGRGFGVTYQLVSKICPLMISRNHCVLKQNPEGQWTIMDNKSLNGVWLNRARLEPLRVYSIHQGDYIQLGVPLENKENAEYEYEVTEEDWETIYPCLSPKNDQMIEKNKELRTKRKFSLDELAGPGAEGPSNLKSKINKVSCESGQPVKSQGKGEVASTPSDNLDPKLTALEPSKTTGAPIYPGFPKVTEVHHEQKASNSSASQRSLQMFKVTMSRILRLKIQMQEKHEAVMNVKKQTQKGNSKKVVQMEQELQDLQSQLCAEQAQQQARVEQLEKTFQEEEQHLQGLEIAQGEKDLKQQLAQALQEHWALMEELNRSKKDFEAIIQAKNKELEQTKEEKEKMQAQKEEVLSHMNDVLENELQCIICSEYFIEAVTLNCAHSFCSYCINEWMKRKIECPICRKDIKSKTYSLVLDNCINKMVNNLSSEVKERRIVLIRERKAKRLF
With B2, the binding result in assay [5] is given as “binds”.
